# Data as given in ChEMBL document CHEMBL4888484, “Replenishing the malaria drug discovery pipeline: Screening and hit evaluation of the MMV Hit Generation Library 1 (HGL1) against asexual blood stage Plasmodium falciparum ,using a nano luciferase reporter read-out” (2022).
# Out of some 150,000 compounds screened, about 540 (0.36%) showed an effect of 50% or more. This is one part of the list.
# System: Plasmodium falciparum
# Assay: Primary screen in NF54 nanoGlo assay, in single point, at 2uM, 72h; a lower Z score goes with more inhibition
# Type: functional, Erythrocyte
# Details: timepoint 72 hour
Compound,% Inhibition,Z score
CS(=O)(=O)c1ccc(Cn2cc3c(c(C#N)c2=O)CCC3)cc1,-14%,2.04
O=C(CC1C(=O)OCC2CCCCN21)Nc1cccc(Cl)c1 (centres undefined),-7%,1.29
CC1NCCN(C(=O)OC(C)(C)C)C1C (centres undefined),-14%,1.5
OC1C2CCCC1C(c1ccccc1)NC2c1ccccc1 (centres undefined),27%,-3.07
O=C1NCCOCCCN(C(=O)c2ccsc2)[C@H]2CCCC[C@@H]12,-10%,1.69
Cn1ccnc1CN1CCN(C(=O)NCc2nc3ccccc3c(=O)[nH]2)CC1,1%,-0.17
CCCn1c(=O)c2sccc2n(CC(=O)N[C@@H](C)CCc2ccccc2)c1=O,-3%,0.35
Cc1cccnc1CNC(=O)Nc1c(C)cnn1CC1CC1,-9%,1.53
CCn1nc(Cc2ccccc2OC)nc1CN1CCCCC1=O,0%,0.06
CCOc1ncccc1C(=O)NCc1noc(C(N)=O)n1,-1%,0.1
O=C(Nc1ccccc1F)c1oc2ccccc2c1NC(=O)C(c1ccccc1)c1ccccc1,-2%,0.4
O=C1C2C3C=CC(C3=C(c3ccccc3)c3ccccc3)C2C(=O)N1c1ccccn1 (centres undefined),24%,-3.01
Cc1nn(CC(=O)N2CC[C@@H](OC(C)C)C2)c2ncccc12,4%,-0.7
CN(C)c1nc(N)nc(C(=O)N[C@H](c2ccccc2)C2CC2)n1,5%,-0.69
O=S(=O)(NCC1(c2ccsc2)CCCC1)c1cccnc1,5%,-0.7
CCN(CC)C(=O)[C@@H](NC(=O)c1ccccc1)C1CCN(C(=O)c2cccc(Br)c2)CC1,-7%,0.72
O=C(CCc1cscn1)N1CCc2[nH]ncc2C1,-10%,1.93
OCCN(CCO)Cc1c[nH]nc1-c1ccc(-c2ccccc2)cc1,11%,-1.7
CC(c1ccccc1)C(CNC(=O)CC1CC1)NC(=O)CC1CC1 (centres undefined),-5%,0.61
O=C(c1cnccn1)N(CCN1CCCC1)Cc1ccc(Cl)cc1,-14%,1.29
C[C@@H](c1ccc(F)c(F)c1)N(C)c1ccn(C)n1,-5%,0.69

Compound,% Inhibition,Z score
COc1ccc(S(=O)(=O)Nc2cc(C#N)ccc2NC2CC2)cc1OC,2%,-0.26
Cc1cc(CS(=O)(=O)[C@@H](C)C(=O)NCC(C)C)on1,36%,-1.13
COc1cc(F)ccc1S(=O)(=O)N1CCN(Cc2c(-c3ccc(F)cc3)nc3ccc(-c4cccc(C)c4)cn23)CC1,-8%,0.94
OCC1CCN([C@H]2CCCN(Cc3ccccc3C(F)(F)F)C2)CC1,-5%,0.52
Cc1ccc(-n2cc(CN3CCN(C)[C@H](C(=O)O)C3)cn2)cc1C,-13%,1.19
CCOC(=O)C(NC(=O)C(O)c1ccccc1)C(O)c1cccnc1 (centres undefined),-9%,1.08
Cc1ccncc1C(=O)N1CCC2(CC1)CC(=O)N(Cc1c(C)noc1C)C2,-15%,2.59
N#Cc1ccccc1-c1ccc(CN2CC(N3CCOCC3)C2)o1,-4%,0.6
CCC(C)c1ccc(NC(=O)N2CC(c3ccccc3)C(c3ccc(Cl)cc3)=N2)cc1 (centres undefined),37%,-1.11
COc1ccccc1C1(c2nnc([C@@H]3COc4ccccc4O3)o2)CCOCC1,-2%,0.26
CC(C)(C)c1nc(CNC[C@H]2CN(C3CC3)CCO2)cs1,-11%,1.59
Cc1nc(C(C)C)ncc1C(=O)N1C[C@@H]2[C@H](C1)[C@H]1CC[C@@H]2O1,-6%,0.97
CCS(=O)(=O)Oc1ccc(CN(Cc2ccc(F)cc2)C(=O)Nc2ccccc2)cc1,-18%,1.67
COc1ccc(C2Nc3ccc(Cl)cc3[C@H]3OCCC[C@@H]23)cc1 (some centres undefined),5%,-0.81
CCS(=O)(=O)N1CCN(Cc2ccc3cn[nH]c3c2)CC1,-7%,0.66
O[C@H]1CCCN(CCCn2ccnc2-c2cc3ccccc3o2)C1,1%,-0.08
O=S1(=O)CCC[C@H](NS(=O)(=O)c2cccc(Cl)c2O)C1,-2%,0.27
CC(C)CN(C1CCN(C)CC1)C1CN(C(=O)c2n[nH]c3ccccc23)C1,-5%,0.62
CCN(C(=O)c1cc2c(s1)CCC2)[C@H]1CCS(=O)(=O)C1,-14%,2.71
CCn1cc(CNC(=O)c2cc(C)nc3onc(-c4cccc(OC)c4)c23)cn1,3%,-0.48
CN(C)S(=O)(=O)c1cnn(Cc2cc(O)cc(C(F)(F)F)c2)c1,-8%,1.04
